# Laboratory results from paper PMC4336329 (PLoS ONE, 2015).
# Screen size: about 310,000 compounds; about 14,000 (4.5%) showed an effect of 50% or more. The effect is printed as a negative number. The list shows a part of the results.
# Target: human ether-à-go-go-related gene (hERG) potassium channel (human, UniProt Q12809)
# Test: primary screen, population patch clamp on CHO cells stably expressing hERG
# 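Note: peak tail current of the secondary pulse compared with the same well before compound.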
# Chain of human ether-à-go-go-related gene (hERG) potassium channel (Q12809 whole entry, looked up): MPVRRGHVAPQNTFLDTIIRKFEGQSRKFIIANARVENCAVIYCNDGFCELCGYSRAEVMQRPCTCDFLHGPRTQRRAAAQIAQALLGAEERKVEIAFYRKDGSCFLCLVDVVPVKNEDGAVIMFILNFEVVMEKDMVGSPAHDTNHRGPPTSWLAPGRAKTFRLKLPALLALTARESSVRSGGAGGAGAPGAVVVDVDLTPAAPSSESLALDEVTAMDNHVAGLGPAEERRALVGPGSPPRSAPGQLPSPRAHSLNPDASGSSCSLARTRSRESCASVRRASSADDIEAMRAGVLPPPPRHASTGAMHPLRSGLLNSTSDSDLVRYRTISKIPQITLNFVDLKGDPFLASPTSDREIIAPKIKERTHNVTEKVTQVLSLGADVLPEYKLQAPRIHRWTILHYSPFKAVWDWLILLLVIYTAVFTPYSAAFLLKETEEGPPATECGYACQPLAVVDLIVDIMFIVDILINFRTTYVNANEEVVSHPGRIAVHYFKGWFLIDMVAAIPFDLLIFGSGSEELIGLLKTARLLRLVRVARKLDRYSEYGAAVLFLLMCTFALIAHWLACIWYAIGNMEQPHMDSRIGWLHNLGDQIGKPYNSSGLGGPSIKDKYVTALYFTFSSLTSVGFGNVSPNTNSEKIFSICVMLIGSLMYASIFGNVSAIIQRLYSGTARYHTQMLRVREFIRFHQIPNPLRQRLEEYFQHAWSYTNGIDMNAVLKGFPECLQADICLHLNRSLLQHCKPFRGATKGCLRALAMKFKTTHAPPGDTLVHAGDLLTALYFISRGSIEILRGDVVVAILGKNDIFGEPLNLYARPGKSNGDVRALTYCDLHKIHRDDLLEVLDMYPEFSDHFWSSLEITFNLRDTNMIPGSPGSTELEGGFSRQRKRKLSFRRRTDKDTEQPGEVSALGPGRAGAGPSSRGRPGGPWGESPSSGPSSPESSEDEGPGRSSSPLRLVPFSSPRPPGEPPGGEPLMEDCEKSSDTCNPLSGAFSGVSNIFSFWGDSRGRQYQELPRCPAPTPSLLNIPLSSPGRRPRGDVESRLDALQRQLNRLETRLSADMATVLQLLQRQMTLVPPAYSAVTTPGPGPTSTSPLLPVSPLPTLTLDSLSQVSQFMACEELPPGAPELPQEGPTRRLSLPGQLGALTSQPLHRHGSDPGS
row,SMILES,"hERG current change (%, negative = inhibition) at 10uM [%]"
1,O=C1CCCC(O)=C1N=Nc1ccc2c(c1)OCO2,2.59
2,CCN(CC)S(=O)(=O)c1ccc(OC(C)C)c(N)c1,7.23
3,CSc1ccc(CN(C)C(=O)c2cc(=O)c3ccccc3o2)cc1,-71.4
4,O=C(CN(c1ccc(F)cc1)S(=O)(=O)c1ccccc1)NCc1ccco1,-5.91
5,O=C(NC1CCCCC1)N1CCCCCC1,-3.92
6,Cc1sc2nc(CSC(C)C(=O)Nc3ccc(C(N)=O)cc3)[nH]c(=O)c2c1C (stereo not shown),2.13
7,O=C(CSc1nnc2c(n1)[nH]c1ccc(F)cc12)NCc1ccc(F)cc1,5.3
8,CC(=O)Nc1ccc(NC(=O)Cn2c(=O)n(-c3ccc(F)cc3)c(=O)c3oc4ccccc4c32)cc1,10.3
9,COc1ccc(N2CCN(CCCNC(=O)Nc3ccccc3)CC2)cc1,-64.5
10,CN(CC(=O)Nc1ccccc1Br)C(=O)c1cccnc1Nc1cccc(C(F)(F)F)c1,25.5
11,COc1ccccc1N1CC(C(=O)Nc2nc(C)cs2)CC1=O (stereo not shown),-9.32
12,COc1cc(/C=C/c2ccc3cccc(O)c3n2)cc(Br)c1OC,15.7
13,CSc1nc(C(C)C)ccc1CNC(=O)CC(C)c1ccccc1 (stereo not shown),6.46
14,C=CCN1C(=NC(=O)CCCC(=O)O)SC2CS(=O)(=O)CC21 (stereo not shown),-6.11
15,CCCN1CCC(NC(=O)Cc2ccccc2OC)CC1,-3.66
16,O=C(NNC1=C(C(=O)C(F)(F)F)CCC1)c1cccc(Cl)c1,7.77
17,CC1=CC(C)(C)Nc2ccc(Cc3ccc4c(c3)C(C)=CC(C)(C)N4)cc21,13.9
18,O=C(Cn1c(=O)c2c(ncn2Cc2ccccc2)n(Cc2ccccc2)c1=O)NC1CC1,10.8
19,CCCCn1nc(C(=O)Nc2c(C)n(C)n(-c3ccccc3)c2=O)c2ccccc2c1=O,-17.9
20,Cc1ccc(C(=O)NCC(=O)NC2CCCC2)cc1,29.2

row,SMILES,"hERG current change (%, negative = inhibition) at 10uM [%]"
1,O=C(CSc1nnc(SCc2ccccc2)s1)N/N=C/C=C\c1ccco1,9.17
2,O=C(CSc1nc2ccccc2s1)Nc1cc(S(=O)(=O)N2CCOCC2)ccc1Cl,-26.2
3,O=C(CN1CCN(c2ccc(Cl)cc2)CC1)NCc1ccccc1,-51.3
4,Cc1ccc(C)c(SCC(=O)Nc2cccnc2Cl)c1,0.545
5,COc1cc(/C=C/C(O)=C/C(=O)/C=C/c2ccc(O)cc2)ccc1O,18.9
6,CCOc1ccc(CCNC(=O)CS(=O)Cc2nc(-c3ccccc3C)oc2C)cc1OCC (stereo not shown),9.37
7,CCOc1cccc(-c2csc(C3COc4ccccc4O3)n2)c1.Cl (stereo not shown),6.57
8,O=C(Cn1c(=O)n(CCC(=O)N2CCCCC2)c(=O)c2sccc21)NCc1ccccc1,5.68
9,Cc1cccc(C(=O)NCCC(=O)NCc2ccccc2F)c1,-0.878
10,O=C(CN1C(=O)NC2(CCCC2)C1=O)Nc1cc(Cl)ccc1N1CCCCC1,-1.33
11,CCC(C)NC(=O)CSc1n[nH]c(-c2cc(Cl)ccc2OC)n1 (stereo not shown),-5.15
12,N#CCN1CCC/C1=C\[N+](=O)[O-],24
13,Cn1c(NC(=O)c2ccccc2)nc2ccccc21,5.2
14,COCCn1c(SCC(=O)NC2CCCC2)nnc1-c1ccco1,9.84
15,Cc1ccoc1C(=O)Nc1ccc2ccccc2c1,0.232
16,Cc1ccc(C)c(-c2nnc(NC(=O)CCS(=O)(=O)c3ccccc3)o2)c1,-28.4
17,CCCC(C)NC(=O)Cc1ccc(Br)cc1 (stereo not shown),8.89
18,Cc1cc(NC(=S)N(CCN2CCOCC2)Cc2ccccc2F)ccc1Cl,24.1
19,Cl.Clc1ccc(SCCOCCN2CCc3ccccc3C2)cc1,-53.7
20,O=[N+]([O-])c1ccc(-[n+]2nc(-c3ccccc3)nn2-c2ccccc2)cc1.[Br-],17.1

row,SMILES,"hERG current change (%, negative = inhibition) at 10uM [%]"
1,Cc1ccc(-n2ncc3c(N4CCC(C(N)=O)CC4)ncnc32)c(C)c1,-10.5
2,S=C1NCCNC(=S)NCCOCCOCCN1,20.8
3,Cc1ccc(NC(=O)CNC(=O)c2cccs2)cc1S(=O)(=O)Nc1ccc(Cl)cc1,-8.41
4,O=C1/C(=C/c2cccnc2)N=C2CCCCCN12,14.1
5,CS(=O)(=O)c1ccc(Cl)c(NC(=O)COC(=O)CNC(=O)c2ccc(Br)o2)c1,-4.77
6,COc1ccc(S(=O)(=O)N2CCC(O)(c3cccnc3)CC2)cc1OC,7.14
7,O=C(Nc1cccc(O)c1)c1ccccc1[N+](=O)[O-],27.7
8,COc1ccccc1C(=O)NC(=S)Nc1ccc(N2CCOCC2)c(Cl)c1,13.1
9,CCOC(=O)C1=C(C)NC(=S)N(C(C)=O)C1c1ccc(Cl)cc1 (stereo not shown),9.12
10,O=C(CCN1CCC(c2cccs2)=N1)c1cccs1,0.436
11,Cc1c(Cl)cnc(NC(=O)COC(=O)c2ccncc2)c1Cl,6.64
12,O=C(Cn1cnc2ccccc21)N/N=C/c1ccc([N+](=O)[O-])cc1,-1.88
13,Cc1cccc(N(CC(N)=O)C2SC(=O)N(c3ccccc3)C2=O)c1 (stereo not shown),11.6
14,CCNC(=O)C(=O)N/N=C/c1cc([N+](=O)[O-])ccc1O,4.32
15,O=C(Nc1ccccc1C(F)(F)F)C1CCN(C(=O)c2cccs2)CC1,10.5
16,O=C(Nc1ccc(F)c(Cl)c1)c1ccc2c(c1)OCO2,11.3
17,O=C(Nc1ccc(COc2ccccc2)cc1)Oc1ccccc1N1CCOCC1,20
18,COc1cccc(CC2(CO)CCCN(Cc3sc(N4CCCC4)nc3Cl)C2)c1 (stereo not shown),-27.2
